Results from publication PMC4336329 (PLoS ONE, 2015).
Screen size: about 310,000 compounds; about 14,000 (4.5%) showed an effect of 50% or more. Effects have a minus sign here. Some of the results follow.

Target: human ether-à-go-go-related gene (hERG) potassium channel (human, UniProt Q12809)
Assay: primary screen, population patch clamp on CHO cells stably expressing hERG
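Further: peak tail current of the secondary pulse compared with the same well before compound.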

Chain of human ether-à-go-go-related gene (hERG) potassium channel (Q12809 whole entry, looked up): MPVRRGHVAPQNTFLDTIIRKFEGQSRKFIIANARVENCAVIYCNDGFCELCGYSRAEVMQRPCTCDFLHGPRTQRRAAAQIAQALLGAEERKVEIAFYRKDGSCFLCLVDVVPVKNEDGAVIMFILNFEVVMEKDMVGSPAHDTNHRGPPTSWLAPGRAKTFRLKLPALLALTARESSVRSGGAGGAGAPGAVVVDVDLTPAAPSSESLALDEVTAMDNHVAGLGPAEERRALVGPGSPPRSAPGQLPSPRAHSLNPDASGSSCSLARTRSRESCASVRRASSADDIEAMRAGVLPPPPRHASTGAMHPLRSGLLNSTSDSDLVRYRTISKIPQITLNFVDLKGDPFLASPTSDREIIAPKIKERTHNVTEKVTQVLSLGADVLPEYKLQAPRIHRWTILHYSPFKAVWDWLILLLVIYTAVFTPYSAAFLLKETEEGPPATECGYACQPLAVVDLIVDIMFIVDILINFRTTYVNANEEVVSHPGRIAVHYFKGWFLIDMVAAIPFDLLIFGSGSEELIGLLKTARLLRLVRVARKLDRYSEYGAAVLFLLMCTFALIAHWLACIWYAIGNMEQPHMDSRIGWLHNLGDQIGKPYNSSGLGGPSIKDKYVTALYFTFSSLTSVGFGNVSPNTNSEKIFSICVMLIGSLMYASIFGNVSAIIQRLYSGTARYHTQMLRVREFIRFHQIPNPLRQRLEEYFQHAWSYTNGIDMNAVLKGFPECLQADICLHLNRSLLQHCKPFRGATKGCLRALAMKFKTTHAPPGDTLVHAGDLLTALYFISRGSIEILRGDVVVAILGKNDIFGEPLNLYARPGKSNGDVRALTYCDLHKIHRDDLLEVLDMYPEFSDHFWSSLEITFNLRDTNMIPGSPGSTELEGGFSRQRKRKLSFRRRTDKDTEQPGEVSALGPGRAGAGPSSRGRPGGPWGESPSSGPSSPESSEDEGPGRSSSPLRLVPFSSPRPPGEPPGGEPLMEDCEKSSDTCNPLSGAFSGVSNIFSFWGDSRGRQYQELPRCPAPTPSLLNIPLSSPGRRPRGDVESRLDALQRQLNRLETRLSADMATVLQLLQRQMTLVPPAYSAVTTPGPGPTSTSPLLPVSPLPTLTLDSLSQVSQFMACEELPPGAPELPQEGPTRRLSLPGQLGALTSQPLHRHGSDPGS

Row | Compound | hERG current change (%, negative = inhibition) at 10uM [%]
1 | COc1ccc(C(=O)Nc2ccnn2C2CCN(Cc3cnn(C)c3)CC2)cc1 | 6.81
2 | N#CC1(c2ccccc2)CCC(=NNS(=O)(=O)c2ccccc2)CC1 (stereo not drawn) | -11
3 | Cc1ccc(-c2nc3sc4c(c3c(=O)n2N)CCCC4)cc1 | -10.1
4 | COc1ccc(OC)c(NC(=O)N2CCCC(C(=O)c3ccccc3OC)C2)c1 (stereo not drawn) | 5.87
5 | CCOC(=O)CN1C(=O)C(=O)N(Cc2c(F)cccc2Cl)C1=O | 17.6
6 | CC12CCC(C(=O)Nc3cc(Cl)ccc3Cl)(C(Br)C1=O)C2(C)C (stereo not drawn) | 3.87
7 | CC1=NNC(=O)C1C(c1cccc(O)c1)C(C#N)C#N (stereo not drawn) | 14.3
8 | CC(C)Cc1csc(NC(=O)c2ccc(F)cc2)c1C(=O)O | 2.82
9 | COc1ccccc1NC(=O)C(C)OC(=O)CC1CCCCC1 (stereo not drawn) | -15.7
10 | O=C1CCSc2ccc(Cl)cc2N1Cc1ccccc1 | 8.99
11 | CCOC(=O)Nc1cc(C)c(Cl)cc1OC | -3.7
12 | COCCCn1nnnc1SCC(=O)Nc1nc(C)c(C)s1 | 7.53
13 | CC1=C(C)[N+](=O)C2CCCCC2N1[O-] (stereo not drawn) | 0.526
14 | O=C(c1ccc(-c2ccc(Cl)cc2)o1)N1CCN(c2ccc([N+](=O)[O-])cc2Cl)CC1 | 3.9
15 | NC(=O)c1oc2ccccc2c1NC(=O)CN1CCCCC1 | 13.9
16 | CC1CC(NC(=O)c2c(O)nc3sccn3c2=O)CC(C)(C)C1 (stereo not drawn) | -10.8
17 | C/C(=N\NC(=O)CC1N=C(Cc2ccccc2)NNC1=O)c1ccncc1 (stereo not drawn) | 14.7
18 | N=c1c(S(=O)(=O)c2ccccc2)cc2c(=O)n3ccccc3nc2n1CC1CCCO1 (stereo not drawn) | -34
19 | CC(C)OP(=O)(c1ccc(N(C)C)cc1)C(Nc1ccccc1)c1cccnc1 (stereo not drawn) | -13.1
20 | O=C1NCCCC1C(=O)Nc1ccccn1 (stereo not drawn) | 22.8
21 | Cc1cccc(NC(=O)c2cccnc2)c1 | -0.778
22 | COC(=O)CCCC1=CC2=CC(=O)C(C)(OC(=O)CCc3ccccc3)C(=O)C2=CO1 (stereo not drawn) | 9.17
23 | CCc1ccc(CN(C)C(=O)CC2C(=O)NCCN2Cc2ccoc2)cc1 (stereo not drawn) | 4.18

Row | Compound | hERG current change (%, negative = inhibition) at 10uM [%]
24 | COc1ccc(CC(=O)Nc2c(C(=O)N3CCN(c4ncccn4)CC3)oc3ccccc23)cc1OC | -46.8
25 | Cc1ccc(C(=O)COC(=O)CNC(=O)CN2C(=O)c3ccccc3C2=O)cc1 | 24.1
26 | O=C(CCn1nnc(-c2cccs2)n1)NCc1ccccc1Cl | -28.1
27 | CN1CCN(S(=O)(=O)c2ccc(NCc3ccc4c(c3)OCO4)nc2)CC1 | 0.455
28 | Cc1ccccc1CC(=O)Nc1ccc(C(=O)N2CCCC2)cc1 | 17.2
29 | CN(C)S(=O)(=O)c1ccc(Cl)c(NC(=O)COC(=O)/C=C/c2ccco2)c1 | 16.7
30 | O=C(CN1C(=O)NC2(CCSC2)C1=O)NCc1ccccc1 (stereo not drawn) | 13.5
31 | Cl.OC(COC(c1ccc(Cl)cc1)c1ccc(Cl)cc1)CN1CCN(c2ccccn2)CC1 (stereo not drawn) | -82.4
32 | COc1ccc(CNC(=O)C(=O)NCC2OCCN2S(=O)(=O)c2ccc(C)cc2)cc1 (stereo not drawn) | 28.1
33 | FC(F)(F)c1nnc2ccc(Cl)nn12 | 16.7
34 | O=S(=O)(NCc1csc(-c2cccs2)n1)c1ccc(Cl)cc1 | -25
35 | Cc1ccc2nc(-c3ccccc3)cc(C(=O)N3CCN(c4ccccc4O)CC3)c2c1 | -3.24
36 | COc1ccc(NC(=O)CN2CCc3ccccc3C2)c([N+](=O)[O-])c1 | 25.4
37 | O=c1[nH]c(C2CCN(S(=O)(=O)c3ccc(S(=O)(=O)NC4CC4)cc3)CC2)nc2c1nnn2Cc1cccc(F)c1 | -16.5
38 | C=CCSc1nc2sc(-c3ccccc3)cc2c(=O)n1N | 21.6
39 | CCN(CC)S(=O)(=O)c1ccc(C(=O)OCCNC(=O)c2cccnc2)cc1 | -2.68
40 | CC(C)C[C@H](NC(=O)[C@@H](O)[C@H](N)Cc1ccccc1)C(=O)O | 11.4
41 | CCOC(=O)C1(CCOC)CCN(Cc2nc(C(C)C)cs2)CC1 | 41
42 | Cc1scc(C(=O)NNC(=S)NCC(C)C)c1C | 19.5
43 | O=[N+]([O-])c1ccc(-c2nc3ccc([N+](=O)[O-])cc3[nH]2)cc1 | -27.9
44 | O=C(c1ccccc1)c1c[nH]c(C(=O)NCCCn2ccnc2)c1 | 5.27
45 | O=[N+]([O-])c1cccc(/C=N/N=C\c2ccccc2)c1 | 29
46 | On1nnc2ccccc21 | 4.77

Row | Compound | hERG current change (%, negative = inhibition) at 10uM [%]
47 | COc1ccc(-c2oc3cccnc3c2C#CCO)cc1 | 9.84
48 | COc1ccc(C2Nc3ccccc3C(=O)N2NC(C)=O)cc1OC (stereo not drawn) | 17.6
49 | Cc1ccc(NC(=O)C2c3ccccc3Oc3ccccc32)nc1 | 4.54
50 | CCOc1ccc(CC2c3cc(OCC)c(OCC)cc3CCN2C(=O)CN2CCN(C)CC2)cc1OCC.Cl (stereo not drawn) | 3.3
51 | COc1ccc(/C=N/Nc2cc(C)nc3ccccc23)cc1 | -63.3
52 | O=c1cc(N/N=C/c2ccccc2)[nH]c(=O)[nH]1 | 1.85
53 | S=c1[nH]nc(-c2ccc(Cl)cc2)n1/N=C/c1cccs1 | 16.8
54 | CCN(c1cc(C)cc(C)c1)S(=O)(=O)c1nnc(NC(=O)c2ccco2)s1 | 11.2
55 | CCOC(=O)C1=CN(CC2CCCO2)C=C(C(=O)OCC)C1c1ccccc1C(F)(F)F (stereo not drawn) | -64.7
56 | Nc1nc2ccccc2nc1N1CCCC1 | -12
57 | Cc1c(CCC(=O)O)c(=O)oc2cc3oc4c(c3cc12)CCCC4 | 11
58 | CCN(CC)S(=O)(=O)c1cccc(-c2nnc(SCCOc3ccccc3)o2)c1 | -11.4
59 | Cc1ccc(NC(=O)Cn2cncc2-c2ccc([N+](=O)[O-])cc2)cc1C | -12.8
60 | CCn1nc(C)c(CN2CCCC(C(=O)c3cccc(OC(C)C)c3)C2)c1C (stereo not drawn) | -39.5
61 | Cc1ccnc(N2CCCC(C(=O)Nc3cc(F)ccc3C)C2)n1 (stereo not drawn) | 2.66
62 | O=C1CCN(CCCc2ccccc2)CCN1CCO | 2.01
63 | O=C(/C=N/O)Nc1cccnc1 | 15.7
64 | O=c1[nH]cnc2onc(-c3ccc(F)cc3)c12 | 12.5
65 | C=CCN1C(=O)/C(=C/c2ccc(-c3ccc(F)cc3)o2)SC1=S | 3.08
66 | Cc1ccc(CNC(=O)c2oc3ccc(S(=O)(=O)N4CCOCC4)cc3c2C)cc1 | -10.5
67 | CCCCn1c(CN2CCN(c3ccccc3)CC2)nc2c1c(=O)n(C)c(=O)n2C | -45.7
68 | O=C(N/N=C/c1ccoc1)c1ccccc1 | 17.9
69 | Cc1c(CN2CCC(C)CC2)c(=O)n(-c2ccccc2)n1C | 7.28

Row | Compound | hERG current change (%, negative = inhibition) at 10uM [%]
70 | O=C(NC(=S)Nc1nc2c(s1)CSc1ccccc1-2)c1ccccc1 | 1.22
71 | CCOC(=O)c1ccccc1N/C=C1\CCCCC1=O | -13.3
72 | CC(C)(CNCC(O)c1ccccc1)N1CCOCC1 (stereo not drawn) | -2.9
73 | COc1ccc(C)cc1NC(=O)c1nnn(CCc2ccccc2)c1N | -6.8
74 | Cc1cc(=O)oc2c1c(C)nn2-c1ccc(Br)cc1 | 19.3
75 | CN(Cc1ccccc1F)c1nc(-c2cccs2)nc2ccccc12 | 11.3
76 | CCc1ccc(CN(C)C(=O)CCc2nnc(Cc3cccc(C)c3)o2)nc1 | -46.2
77 | FC(F)(F)c1cccc(CON=C2CCN(c3ncc(C(F)(F)F)cc3Cl)CC2)c1 | -3.51
78 | CCc1ccc2[nH]c(=O)c(C(c3nnnn3CCOC)N3CCN(c4ccccc4F)CC3)cc2c1 (stereo not drawn) | -9.36
79 | Cc1ccc2cc(CN(c3cccc(C)c3C)S(=O)(=O)c3ccccc3)c(=O)[nH]c2c1 | 8.52
80 | CCCN1CCN(C(=O)Cn2c(=O)oc3cc(S(=O)(=O)NCc4ccccc4)ccc32)CC1 | -6.53
81 | CCCCn1c(CCCNC(=O)CC)nc2ccccc21 | -37.3
82 | Cc1c(-c2ccccc2)nc2ccccc2c1C(=O)Oc1ccc([N+](=O)[O-])cc1 | -21.6
83 | CC(C)(C)n1nnnc1C(c1cccc(C(F)(F)F)c1)N1CCOCC1 (stereo not drawn) | 1.38
84 | Cc1c(NC(=O)/C(C#N)=C/c2ccc(-c3cc(Cl)ccc3Cl)o2)c(=O)n(-c2ccccc2)n1C | -5.54
85 | Cc1ccccc1OCC(=O)Nc1ccncc1 | 11.6
86 | CC(=O)Nc1ccc2nc(NS(=O)(=O)c3ccc(C)cc3)sc2c1 | 16.2
87 | Cc1cc(C)n(-c2ccc(Cl)c(C(=O)OCC(=O)N3CCCCC3C)n2)n1 (stereo not drawn) | -4.12
88 | CN(C)CCCNS(=O)(=O)c1ccc(Cl)s1 | 1.2
89 | CC(C)(CNC(=O)c1ccc(NS(=O)(=O)c2ccc(F)c(F)c2)cc1)N1CCOCC1 | -5.36
90 | CCOC(=O)N1CCN(C(=O)c2cc(-c3ccncc3)nc3ccccc23)CC1 | -48.4
